Assay results as given in PubChem BioAssay AID2675 (National Center for Advancing Translational Sciences (NCATS), 2010).
Among all 280,000 compounds or so, about 100 (0.036%) were called active. The inconclusive results got no clear call from the source; some entries with a clear call stand among them for comparison. Calls come from the whole dose curve; as a rule, active = well fitted inhibition curve with a large enough effect in the signal ratio, with a control signal flat (not every such curve was filed as active); inconclusive = small, poorly fitted or top-dose-only effect, or effect the other way, or a change in a side signal; inactive = no such curve, though single readings can be large or run the other way; the % refers to the signal ratio. A potency beside an inconclusive call is a rough fit, not a confirmed value. “Side channel” marks fits to a control or component signal instead of the main read-out.

Molecular target: Muscleblind-like protein 1 (Homo sapiens) (UniProt Q9NR56)
Experiment: qHTS Assay for Inhibitors of MBNL1-poly(CUG) RNA binding
Conditions: TR-FRET MBNL1-His/biotin-(CUG)12 binding, 665/545 ratio; series mostly up to 57.5 µM
How it was run: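 MBNL1-His + Biotin-(CUG)12, cpd titration 92 nM–58 uM; Tb anti-His Ab 0.055 ng/ul, SA-XL665 5 nM (final); 60 min RT; ratiometric 665/545 nm, Ex 340 nm; normalized to buffer and full-complex controls.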
Potency is the fitted concentration of half-maximal effect; tags give direction and shape of the fitted curve or compound fluorescence and quenching.

UniProt Q9NR56, sequence (Q9NR56 whole entry, looked up): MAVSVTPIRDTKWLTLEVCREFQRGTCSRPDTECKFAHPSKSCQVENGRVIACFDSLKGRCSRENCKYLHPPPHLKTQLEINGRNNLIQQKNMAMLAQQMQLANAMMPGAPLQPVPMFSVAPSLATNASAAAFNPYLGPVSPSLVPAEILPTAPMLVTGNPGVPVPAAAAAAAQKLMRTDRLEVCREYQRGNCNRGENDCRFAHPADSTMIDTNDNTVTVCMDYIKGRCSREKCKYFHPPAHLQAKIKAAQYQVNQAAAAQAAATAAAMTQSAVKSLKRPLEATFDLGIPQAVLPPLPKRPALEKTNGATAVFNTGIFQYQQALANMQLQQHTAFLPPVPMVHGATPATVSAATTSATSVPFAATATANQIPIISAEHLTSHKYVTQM

Row | Structure (SMILES) | Potency
1 | CCCC1=[N+](CC)CCn2c(C)ccc21 | inconclusive: 6.31 µM [quencher, side channel, single point]
2 | S=C(NCc1ccccc1)N1CCN(c2ccccc2)CC1 | inactive
3 | COc1cccc(C2C(C(=O)Nc3ccccc3)=C(C)N=c3s/c(=C/c4ccc(OCC(=O)O)cc4)c(=O)n32)c1 (stereo unspecified) | inconclusive: 22.4 µM [quencher, side channel, single point]
4 | O=C(C[n+]1ccc(C(=O)NCc2ccccc2)cc1)c1ccc2c(c1)OCCO2 | inconclusive: 12.6 µM [quencher, side channel, partial curve]
5 | COc1nccnc1NS(=O)(=O)c1ccc(N=Cc2c(C)[nH]n(-c3ccc(C)c(C)c3)c2=O)cc1 | inactive
6 | O=C(c1ccc(Cn2c(=S)[nH]c3ccc(N4CCOCC4)cc3c2=O)cc1)N1CCN(c2ccc(F)cc2)CC1 | inconclusive: 39.8 µM [fluorescent, side channel, single point]
7 | Cc1cc(C(F)F)n2nc(C(=O)Nc3sc4c(c3C(N)=O)CCC4)nc2n1 | inconclusive: 3.98 µM [quencher, side channel, full curve, poor fit]
8 | COc1cccc2cc(/C(C)=N/Nc3nc(-c4cc(C)ccc4C)cs3)c(=O)oc12 | inconclusive: 3.16 µM [quencher, side channel, partial curve]
9 | CCOC(=O)c1c(NC(=S)Nc2ccc(Cl)cc2)sc2c1CCN(C)C2 | inconclusive: 0.316 µM [quencher, side channel, full curve]
10 | CC1=NOC(=O)/C1=C/c1ccc2c(c1)OCO2 | inactive
11 | CCOc1cc2c(C#N)c(N3CCNCC3)nc(N)c2c(N)n1 | inconclusive: 10 µM [quencher, side channel, partial curve]
12 | O=C1OCc2cccc3cccc1c23 | inconclusive: 20 µM [quencher, side channel, single point]
13 | CCOC(=O)C1(CC2CC2)CCN(Cc2ccc(OC)cc2F)CC1 | inconclusive: 79.4 µM [inhibitor, single point]
14 | O=C1/C(=C/c2ccc3c(c2)OCO3)Oc2cc(OCC(=O)N3CC(O)C[C@H]3C(=O)O)ccc21 (stereo partly specified) | inconclusive: 12.6 µM [quencher, side channel, partial curve]
15 | CCc1ccc(/C=C2\Oc3cc(OS(C)(=O)=O)ccc3C2=O)cc1 | inconclusive: 28.2 µM [quencher, side channel, single point]
16 | COn1c(=O)c(-c2ccc(F)cc2)[n+]([O-])c2ccccc21 | inconclusive: 14.1 µM [quencher, partial curve]
17 | O=C(CSc1nnc(C2CC2)n1Cc1ccccc1)c1cc2ccccc2o1 | inconclusive: 35.5 µM [quencher, single point]
18 | Cc1ccc(/C=C(/C#N)C(=O)NC(C)c2ccccc2)o1 (stereo unspecified) | inconclusive: 7.94 µM [quencher, side channel, partial curve]
19 | CC1=NNC(=O)C1CCC(=O)N/N=C/C=C/c1ccccc1 (stereo unspecified) | inconclusive: 28.2 µM [quencher, side channel, partial curve]
20 | COc1cc(OC)c(NC(=O)CN(C)S(=O)(=O)c2ccc(-c3ccc(=O)[nH]n3)s2)cc1Cl | inconclusive: 7.08 µM [quencher, side channel, full curve]
21 | C=CCOc1cccc(NC(=O)c2ccccc2SC)c1 | inactive

Row | Structure (SMILES) | Potency
22 | Cc1ccc(NC(=S)NCCSc2ccc(Cl)cc2)c(C)c1 | inconclusive: 1.26 µM [fluorescent, side channel, full curve, poor fit]
23 | Cc1csc(N/N=C/c2ccc(O)c([N+](=O)[O-])c2)n1 | inconclusive: 14.1 µM [quencher, side channel, partial curve]
24 | Cc1cc2ccccn2c1C(=O)c1ccccc1Br | inconclusive: 39.8 µM [quencher, side channel, single point]
25 | CN1C(C(=O)NCc2ccccc2)CC2Cn3c(nc4cc5ccccc5cc43)C21 (stereo unspecified) | inconclusive: 35.5 µM [quencher, side channel, single point]
26 | C1CCc2c(nnc3c2-c2nonc2CC3)C1 | inconclusive: 28.2 µM [quencher, single point]
27 | Cc1nc2nc(-c3ccc(F)cc3)cn2nc1C | inconclusive: 28.2 µM [quencher, side channel, partial curve]
28 | Cc1cc(C(=O)N2CCN(c3ccc([N+](=O)[O-])cc3)CC2)n[nH]1 | inconclusive: 15.8 µM [quencher, partial curve]
29 | CC(C)OCCCNC(=O)C1CCC(CNS(=O)(=O)c2cccc3nsnc23)CC1 (stereo unspecified) | inconclusive: 7.94 µM [quencher, side channel, partial curve]
30 | O=C1C(=O)N(Cc2cccc([N+](=O)[O-])c2)c2ccccc21 | inconclusive: 22.4 µM [quencher, single point]
31 | Cc1nn(Cc2ccccc2)c(C)c1NC(=O)CCCn1nc([N+](=O)[O-])c(Cl)c1C | inconclusive: 31.6 µM [quencher, side channel, single point]
32 | O=C(Cc1cccc2ccccc12)N/N=C/c1ccncc1 | inconclusive: 20 µM [quencher, side channel, partial curve]
33 | COc1ccc([N+](=O)[O-])cc1NC(=O)CCSCCc1ccccn1 | inconclusive: 28.2 µM [quencher, side channel, partial curve]
34 | COc1ccc(OC)c(C(=O)NC(CC(N)=O)c2ccc(N3CCN(c4ccccn4)CC3)c([N+](=O)[O-])c2)c1 (stereo unspecified) | inconclusive: 39.8 µM [quencher, side channel, single point]
35 | CCOc1ccc(CN(CC)C(=O)c2ccc3c(c2)[nH]c(=O)c(=O)n3CC)cc1OC | inactive
36 | Cc1ccc(S(=O)(=O)N(C)Cc2ccc(C(=O)N/N=C/c3ccc(OC(F)F)cc3OC(F)F)cc2)cc1 | inactive
37 | O=C(COc1ccc2ccc(=O)oc2c1)OCc1ccccc1 | inconclusive: 39.8 µM [fluorescent, side channel, single point]
38 | CC(C)(C)NC(=S)Nc1ccc(Nc2ccccc2)cc1 | inactive
39 | Cc1ccc(C(=O)NCC(=O)Nc2ccccc2C(F)(F)F)cc1 | inconclusive: 11.2 µM [fluorescent, side channel, partial curve]
40 | COc1ccc(NC(=O)CS(=O)(=O)Cc2ccccc2)c([N+](=O)[O-])c1 | inconclusive: 39.8 µM [quencher, side channel, single point]
41 | CCOC(=O)Cc1cc(=O)n2[nH]c(C)c(-c3ccc(Cl)cc3)c2n1 | inactive
42 | COC(=O)c1c(C(=O)OC)c2cc(C(=O)c3ccccc3)ccn2c1Cl | inconclusive: 7.94 µM [quencher, side channel, partial curve]

Row | Structure (SMILES) | Potency
43 | CCOc1ccc(C(=O)C[n+]2cccc3cc(C)ccc32)cc1 | inconclusive: 31.6 µM [quencher, side channel, partial curve]
44 | c1ccc(OCCCCn2cnc3ccccc32)cc1 | inactive
45 | Cc1nonc1C(=O)N/N=C/c1ccncc1 | inactive
46 | COCC(=O)N(CCc1ccc(OC)cc1)Cc1nc2ccccc2c(=O)[nH]1 | inactive
47 | COc1ccc(C(C)=O)cc1COc1ccccc1[N+](=O)[O-] | inactive
48 | CN1CCN(C(=O)c2ccc3nc(-c4ccccc4)c(-c4ccccc4)nc3c2)CC1 | inconclusive: 17.8 µM [quencher, side channel, partial curve]
49 | COc1ccc(NC(=O)c2ccc3nc(C)sc3c2)cc1 | inactive
50 | C[C@@H](O)[C@@H]1NC(=O)c2cc([N+](=O)[O-])cc(I)c2NCC[C@@H](C(N)=O)NC(=O)CNC1=O | inconclusive: 25.1 µM [quencher, side channel, partial curve]
51 | Cc1nnc(SCC(=O)N(C)C2CCCCC2)s1 | inactive
52 | COc1ccc(N2C(=O)c3cccc4c(N(C)CCO)ccc(c34)C2=O)cc1 | inconclusive: 3.16 µM [quencher, side channel, full curve]
53 | COc1ccc(N2Cc3cccc(C(=O)N4CCN(C(=O)c5ccco5)CC4)c3C2=O)cc1 | inactive
54 | N#Cc1c(N)n(CCNC(=O)c2cccs2)c2nc3ccccc3nc12 | inconclusive: 17.8 µM [quencher, side channel, single point]
55 | Cc1cccc(NC(=O)NCc2ccccn2)c1 | inconclusive: 8.91 µM [quencher, side channel, full curve]
56 | Cc1ccc(NC(=O)C2=C(c3ccccc3)S(=O)(=O)CCS2(=O)=O)cc1 | inactive
57 | Cc1ccc2nc(NC(=O)C3CCCN(S(=O)(=O)c4cccc5nsnc45)C3)sc2c1 (stereo unspecified) | inconclusive: 10 µM [quencher, side channel, partial curve]
58 | COc1ccc(C2CC(=O)c3cnc(NC(=O)c4ccco4)nc3C2)cc1 (stereo unspecified) | inconclusive: 28.2 µM [quencher, side channel, partial curve]
59 | CC(C)N1C(=S)SC(C)(C)C1NO (stereo unspecified) | inconclusive: 3.98 µM [quencher, side channel, single point]
60 | CC(=O)c1ccc2c3c(cccc13)C(=O)N(c1c(C)nn(C)c1C)C2=O | inconclusive: 12.6 µM [quencher, side channel, partial curve]
61 | COCCNC(=O)C(c1cccs1)N(C(=O)Cn1nnc2ccccc21)c1ccc(OC)cc1 (stereo unspecified) | active: 28.2 µM
